According to PubChem BioAssay AID488969 (Vanderbilt High Throughput Screening Facility, 2010):
Several values for one entry are separate records, joined by “and”; a condition that tells them apart may be missing. Identical values can stand only once. In all, about 110,000 compounds were measured (“z-score”: median about -0.1, highest 2% from about 2 on). This is one part of the list. Activity calls are given as the source filed them.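 How the source made its calls: active means z-score in the third read window above 3 or below -3; inactive means the rest.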

These compounds were tested against Metabotropic glutamate receptor 8 (Rattus norvegicus) (UniProt P70579) (assay: mGluR8 Gi/Go-coupled signaling modulation – cell-based, rat, thallium flux, HTS, primary screen (AID 488969)). Conditions: HEK293 rat mGluR8, GIRK (G protein-gated inwardly rectifying potassium channel) thallium flux, FluoZin2; at 10 µM; stronger effect = higher value; submaximal glutamate (EC20) added with thallium.
Sequence of UniProt P70579 (P70579 whole entry, looked up): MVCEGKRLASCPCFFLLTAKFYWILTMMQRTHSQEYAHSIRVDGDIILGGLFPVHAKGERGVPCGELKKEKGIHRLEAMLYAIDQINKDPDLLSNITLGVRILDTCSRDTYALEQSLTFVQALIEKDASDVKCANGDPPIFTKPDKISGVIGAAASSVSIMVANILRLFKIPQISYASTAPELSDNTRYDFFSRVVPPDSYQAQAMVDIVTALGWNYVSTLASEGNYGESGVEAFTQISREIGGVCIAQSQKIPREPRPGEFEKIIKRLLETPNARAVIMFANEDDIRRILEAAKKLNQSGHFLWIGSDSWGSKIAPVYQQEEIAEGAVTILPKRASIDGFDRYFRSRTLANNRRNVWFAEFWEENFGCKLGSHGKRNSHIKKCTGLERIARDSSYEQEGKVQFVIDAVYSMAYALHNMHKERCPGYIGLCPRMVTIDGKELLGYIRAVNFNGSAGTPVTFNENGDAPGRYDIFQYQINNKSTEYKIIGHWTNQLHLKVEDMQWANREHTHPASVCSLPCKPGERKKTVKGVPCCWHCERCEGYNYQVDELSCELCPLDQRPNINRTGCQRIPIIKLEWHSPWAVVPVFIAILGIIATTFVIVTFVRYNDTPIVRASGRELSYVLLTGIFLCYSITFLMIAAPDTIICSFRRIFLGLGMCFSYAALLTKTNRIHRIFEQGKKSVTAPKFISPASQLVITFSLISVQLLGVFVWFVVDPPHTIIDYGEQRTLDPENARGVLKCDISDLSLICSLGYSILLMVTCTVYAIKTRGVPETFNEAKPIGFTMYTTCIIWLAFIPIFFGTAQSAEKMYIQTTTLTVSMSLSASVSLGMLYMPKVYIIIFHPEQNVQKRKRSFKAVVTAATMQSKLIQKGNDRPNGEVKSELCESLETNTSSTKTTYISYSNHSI

SMILES	z-score
CCOc1ccccc1N1CCN(C(=O)c2ccncc2)CC1	0.397
Cc1c(NS(=O)(=O)N2CCCCC2)c(=O)n(-c2ccccc2)n1C	-0.144
CCCCS(=O)(=O)N1CN(S(=O)(=O)CCCC)C2NC(=O)NC21 (stereo unspecified)	-0.232
CC1CCCC(NC(=O)COC(=O)Cc2ccsc2)C1C (stereo unspecified)	0.259
Cc1oc2c(CN3CCOCC3)c(O)ccc2c(=O)c1-c1ccc(Br)cc1	-0.298
COc1ccc(NC(=S)N2CCC(C(=O)N3CCCCCC3)CC2)cc1	0.26
CNC(=O)C12CCC(C)(c3nc4cc(C)c(C)cc4nc31)C2(C)C (stereo unspecified)	-0.217
COc1ccccc1Nc1nnc(SCC(=O)N2CCCC2=O)s1	1.33
Cc1ccc(-c2nnn(CC(=O)N(Cc3ccco3)C(C(=O)NC(C)(C)C)c3cccs3)n2)o1 (stereo unspecified)	-0.677
O=C1c2ccccc2S(=O)(=O)N1CC1CC(c2ccccc2)=NO1 (stereo unspecified)	-0.385
COC(=O)c1sccc1NC(=O)/C=C/c1c(Cl)cccc1Cl	-0.118
Cc1cc(=O)n2nc(N3CCCC(C(=O)N4CCN(C)CC4)C3)sc2n1 (stereo unspecified)	0.72
CCOC(=O)c1cnc(-n2nc(C)cc2C)nc1NCc1ccccc1	-0.648
CCCOc1ccc(N2C(=O)CC(NCCCN3CCC(C(N)=O)CC3)C2=O)cc1 (stereo unspecified)	-0.136
O=C(CN(C(=O)CNC(=O)c1ccco1)c1ccc2c(c1)OCO2)NC1CCCCC1	0.676
COc1ccc(OC)c(NC(=O)c2ccc(S(=O)(=O)N3CCN(C)CC3)cc2)c1	-0.884
O=c1c2c(nc3nc[nH]n13)CCC2	-0.196
Cc1onc(-c2ccccc2Cl)c1C(=O)N1CCc2ccccc21	0.442
CC1(C)SC(=S)N(Cc2ccc3c(c2)OCO3)C1N(O)C(=O)NC1CCCCC1 (stereo unspecified)	-0.445
CCN(CC)S(=O)(=O)c1ccc2c(c1)c(=O)c(C(=O)N1CCN(c3ccccc3)CC1)cn2C	-1.51
O=C(CN1CCC(C(=O)c2cccc(F)c2)CC1)NCc1cccs1	-0.0194
Cc1ccc(-c2cc(C(=O)NCc3ccc4c(c3)OCO4)no2)cc1	-0.211
Cc1cccc2sc(NC(=O)C3=NN(c4ccccc4)C(=O)CC3)nc12	-0.371

SMILES	z-score
Cc1ccc(C(=O)NNC(=O)CSc2nnc(-c3ccncc3)n2-c2ccc(C)cc2)cc1	-0.528
O=C1CC(N2CCC(c3nc4ccccc4s3)CC2)C(=O)N1Cc1ccccc1 (stereo unspecified)	-0.423
CCOC(=O)c1sc(NC(=O)CSc2ncccn2)c(C#N)c1C	-0.32
C=CCNS(=O)(=O)c1ccc(OC)c(C)c1	0.193
Cc1ccc(Nc2ccccc2)cc1	-0.319
Cc1c(Cl)cccc1NC(=S)NC1CCN(Cc2ccccc2)CC1	-0.67
CCOc1ccc(OCC(O)CNC2CCN(Cc3ccccc3)CC2)cc1 (stereo unspecified)	0.38
COc1ccc(S(=O)(=O)NCCSCc2ccco2)cc1C	-0.162
O=C(CSCCO)Nc1cc(C(F)(F)F)ccc1Cl	0.171
O=C(O)/C=C/c1nc(-c2ccccc2)n2ccccc12	-0.293
CCOC(=O)CN1C(=O)SC(CC(=O)Nc2nccs2)C1=O (stereo unspecified)	0.137
CCC(=O)NC(Nc1ncc(C)s1)(C(=O)OC)C(F)(F)F (stereo unspecified)	-0.503
CCOC(=O)c1c(NC(C)=O)sc2c(O)c(CN3CCN(CC)CC3)ccc12	0.962
Cc1nn(C)c(C)c1S(=O)(=O)N1CCCC(C(=O)NCC2COc3ccccc3O2)C1 (stereo unspecified)	0.153
Cc1noc(C)c1C(=O)OCC(=O)/C=C1\N(C)c2ccccc2C1(C)C	-0.0096
COc1ccc2c(c1)C(=O)N(c1ccc(C)cc1)C(=O)C2	-0.101
CCCCC(=O)Nc1ccc2c(c1)C(=O)NC2=O	-0.138
O=C(Nc1cc(C(F)(F)F)ccc1N1CCOCC1)c1cccc(F)c1	0.104
CC(C)(CNC(=O)c1cc(=O)[nH]c2ccccc12)N1CCOCC1	0.0537
S=C(Nc1ccc(Cl)cc1Cl)NC1CCCCC1	0.599
CCN(CC)CCCNC(=O)C1c2cc(OC)c(OC)cc2C(=O)N(C)C1c1cccs1 (stereo unspecified)	0.0641
O=[N+]([O-])c1cccc(-c2ccc(/C=N/n3c(-c4ccccc4)n[nH]c3=S)o2)c1	0.0532
Cc1cc2oc(=O)c3c(c2cc1OC(=O)c1ccco1)CCCC3	-0.17

SMILES	z-score
CC(=O)c1ccc(NC(=O)/C(=C\c2ccccc2)NC(=O)/C=C/c2ccccc2)cc1	-0.443
CCOC(=O)c1c(N)sc(C(=O)N2CCOCC2)c1C	0.105
CCN(CC)c1ccc(SS(=O)(=O)O)cc1	0.214 and -0.202
O=C1C2C(C(=O)N1Cc1ccco1)C1C=CC2C12CC2 (stereo unspecified)	0.0454
Cc1ccc(C)n1-n1c(C)nc2sc3c(c2c1=O)CCCCC3	0.163
COc1cccc(C(=O)NN2c3ccccc3CCc3ccccc32)c1	-1.14
Cc1ccccc1NC1=CC(=O)CC(C)(C)C1	-0.1
CCOC(=O)Cn1cc(C(=O)C2CC2)c2ccccc21	0.886
CCOc1ccc(C2CC(c3ccccc3C)n3nc(N)nc3N2)cc1 (stereo unspecified)	0.35
COc1ccc(C(c2nnnn2CC2CCCO2)N2CCN(c3ccccc3)CC2)cc1 (stereo unspecified)	0.09
CC(Sc1cccc2cccc(C(=O)O)c12)C(=O)O (stereo unspecified)	0.548
CNc1nc(C)nc(-c2ccccc2O)n1	-0.243
Cc1ccc2nc(SCC(=O)Nc3ccc(F)c([N+](=O)[O-])c3)[nH]c2c1	-0.15
Cc1cc(C)cc(-n2nnc(C(=O)NCc3ccco3)c2N)c1	-1.04
Cc1ccc(NC(=O)/C(=C\c2cccnc2)NC(=O)c2ccco2)cc1	0.0795
Cc1c(NC(=O)c2cc(-c3ccccc3)on2)c(=O)n(-c2ccccc2)n1C	0.102
CS(=O)(=O)N(CC(=O)N1CCOCC1)Cc1ccc(Cl)cc1	-0.225
O=C(Nc1ccc2c(c1)OCCO2)c1cnc2n(c1=O)CCS2	0.165
COc1ccc(N2CCN(C(=O)c3cccc(Cn4cc(Cl)cn4)c3)CC2)cc1	-1.05
Cc1cc(C(=O)COC(=O)Cc2n[nH]c(=O)c3ccccc23)c(C)n1-c1cccc(C(F)(F)F)c1	-1.01
Cn1c(=O)cc(NCCc2ccccc2)[nH]c1=O	0.914
COc1ccc(NC(=O)CSc2nc3ccccc3c(=O)n2Cc2cccs2)c(OC)c1	0.00897
O=[N+]([O-])c1ccc(-c2nc(NCc3ccccc3)c3ccccc3n2)cc1	0.258

SMILES	z-score
CCCCOC(=O)c1ccc(NC(=O)COC(=O)CSc2nc(C)cc(C)n2)cc1	-0.348
CCCn1c(N2CCOCC2)nc2c1c(=O)[nH]c(=O)n2C	0.167
O=C(Nc1cccc(C(F)(F)F)c1)C(Sc1ncnc2ccccc12)c1ccccc1 (stereo unspecified)	0.212
CCOC(=O)c1cnn(-c2ccccc2)c1NC(=O)c1ccccc1C	-0.103
COc1ccc(/C(O)=C2/C(=O)C(=O)N(CC3CCCO3)C2c2cccc(O)c2)cc1 (stereo unspecified)	-0.0622
CCCCOCP(=O)(CCCC)COCCCC	-0.549
COc1cc(/C=N/NC(=O)CC2(C)OCCCO2)ccc1OCc1ccccc1	-0.0134
Cc1cc(SCCC(=O)O)nc2ccccc12	0.204
COc1ccc(Cc2nc(C(=O)Nc3ccc(OC)cc3)cs2)cc1	0.0776
CC(=O)c1c(OC(=O)c2ccco2)c2ccccc2n1C	0.752
C=CCn1c(C)cc(C(=O)COc2ccc(S(=O)(=O)N3CCCC3)cc2[N+](=O)[O-])c1C	0.0585
COc1ccc(CSC(=N)N)cc1[N+](=O)[O-]	0.197
NC(=O)C(c1ccc(Cl)cc1)c1ncc(C(F)(F)F)cc1Cl (stereo unspecified)	-0.0293
COc1ccccc1Nc1ccc([N+](=O)[O-])cc1N	-0.303
CC(=O)Nc1ccc(N/C=C/C(=O)c2ccc(C)o2)cc1	0.0049
Cc1ccc(Nc2nc3c(c(=O)[nH]2)CCCC3)cc1	1.39
COc1cc(/C=N/Nc2ncc(C(F)(F)F)cc2Cl)cc(OC)c1O	-0.521
CCCN(CCC)C(=O)C[n+]1cccc(/C=N/O)c1	-0.0664
COC(=O)CSc1nnc(-c2ccccn2)n1Cc1ccco1	0.213
Cc1occc1-c1nnc(SCc2cc(=O)n3cc(Br)ccc3n2)n1C	0.0968
CC(C)(C)C(=O)NC1CCN(S(=O)(=O)c2ccccc2F)CC1	-0.294
CSCCC(C(=O)O)N1C(=O)c2ccc(C(=O)O)cc2C1=O (stereo unspecified)	0.562
CNS(=O)(=O)c1cccc(C(=O)NCC(c2cccs2)N(C)C)c1 (stereo unspecified)	0.554

SMILES	z-score
O=[N+]([O-])c1ccc(Sc2nnnn2-c2ccccc2)c(Cl)c1	0.585
CCC(C(=O)NCCCc1ccccc1)c1ccccc1 (stereo unspecified)	-0.218
C/C(=N\NC(=O)C1CC1)c1cccnc1	-0.241
O=C(N/N=C/c1c(O)n(-c2ccc(Cl)cn2)c(=O)c2ccccc12)C1CC1	-0.139
O=C(Nc1ccc(-n2cnnn2)cc1)C1CCCN1C(=O)NC1CCCCC1 (stereo unspecified)	-0.018
CCOC(=O)C(NCc1ccccc1OC)(NC(=O)c1ccccc1)C(F)(F)F (stereo unspecified)	-0.123
Cc1cccc(C)c1NC(=O)CSc1nc(COc2ccccc2)nc2ccccc12	0.755
COc1cc(CNc2nc(C)c([N+](=O)[O-])c(C)c2C#N)cc(OC)c1	-0.18
CCOc1ccc(N(Cc2cc3ccc(C)cc3[nH]c2=O)C(=O)COC)cc1	1.24
CC(=O)c1cccc(NC(=O)c2oc(C)nc2C)c1	0.000627
Cc1ccc(-c2cc(-c3ccc(Cl)cc3)c(C#N)c(N)n2)o1	0.222
CCOc1cc(/C=N/NC(N)=O)cc(Br)c1OCC(=O)Nc1ccccc1C	-0.261
CS(=O)(=O)N1CCN(c2ccccc2F)CC1	0.0453
O=C(Nc1ccc(O)cc1)c1cc(S(=O)(=O)N2CCCC2)ccc1Cl	0.0382
CCOC(=O)N1CCN(CCC(=O)Nc2ccc(OC)cc2)CC1	-0.183
CC(O)c1nc2ccccc2n1C1CCCCC1 (stereo unspecified)	active: 6.36
CSc1nnc(-c2cc(C)on2)n1-c1ccccc1	1.12
CCn1cc(C(=O)NCCCN2CC(C)CC(C)C2)c2cc(OC)c(OC)cc2c1=O (stereo unspecified)	-0.607
COc1ccccc1CC(NC(C)=O)C(=O)NC1CCN(C(=O)c2ccc([N+](=O)[O-])cc2)CC1 (stereo unspecified)	0.0267
